The results in this text go back to patent US12692294B2, “Engineered NRG-1 variants with improved selectivity toward ErbB4 but not against ErbB3” (Amgen Inc., priority 2021, dated 2026).

B1: huNRG1(S177-Q237)(NRGE1D)::3x(G4Q)::huFcSEFL2 (Pb): Fc fusion of NRG1 variant SEQ ID NO:131 (protein)
chain: SHLVKCGESHKSFCVNGGECYMVEGSSIPSRYLCKCPNEFTGDRCQEDFMASFYKAEELYQGGGGQGGGGQGGGGQ[letters of human IgG1 Fc with changes not shown]
modifications: huNRG1(S177-Q237)(NRGE1D)::3x(G4Q)::huFcSEFL2 (Pb)
B2: huNRG1(S177-S228)(NRGE1D)::3x(G4Q)::huFcSEFL2 (Pb): Fc fusion of NRG1 variant SEQ ID NO:125 (protein)
chain: SHLVKCGESHKSFCVNGGECYMVEGSSIPSRYLCKCPNEFTGDRCQEDFMASGGGGQGGGGQGGGGQ[letters of human IgG1 Fc with changes not shown]
modifications: huNRG1(S177-S228)(NRGE1D)::3x(G4Q)::huFcSEFL2 (Pb)
B3: huNRG1(S177-Q237)(NRGE1A)::GG::huFcSEFL2 (Pb): Fc fusion of NRG1 variant SEQ ID NO:114 (protein)
chain: SHLVKCAENDKSFCVNGGECFMIEGPSNPSRYLCKCPNEFTGDRCQEDFMASFYKAEELYQGG[letters of human IgG1 Fc with R292C N297G V302C (EU numbers) not shown]
modifications: huNRG1(S177-Q237)(NRGE1A)::GG::huFcSEFL2 (Pb)
B4: huNRG1(S177-Q237)(NRGE1N)::GG::huFcSEFL2 (Pb): Fc fusion of NRG1 variant SEQ ID NO:141 (protein)
chain: B3 chain with A7G, F21Y, I23V, P26S, N28I, E47D, D48F
modifications: huNRG1(S177-Q237)(NRGE1N)::GG::huFcSEFL2 (Pb)
B5: huNRG1(S177-Q237)(NRGE1L)::GG::huFcSEFL2 (Pb): Fc fusion of NRG1 variant SEQ ID NO:139 (protein)
chain: B3 chain with A7G, N9S, D10H, F21Y, I23V, P26S, N28I, E47D
modifications: huNRG1(S177-Q237)(NRGE1L)::GG::huFcSEFL2 (Pb)
B6: huNRG1(S177-Q237)(NRGE1K)::GG::huFcSEFL2 (Pb): Fc fusion of NRG1 variant SEQ ID NO:138 (protein)
chain: B3 chain with N9K, D10H, E47D
modifications: huNRG1(S177-Q237)(NRGE1K)::GG::huFcSEFL2 (Pb)
B7: huNRG1(S177-Q237)(NRGE1F)::GG::huFcSEFL2 (Pb): Fc fusion of NRG1 variant SEQ ID NO:133 (protein)
chain: B3 chain with F21Y, I23V, P26S, N28I, E47N
modifications: huNRG1(S177-Q237)(NRGE1F)::GG::huFcSEFL2 (Pb)
B8: huNRG1(S177-Q237)(NRGE1M)::GG::huFcSEFL2 (Pb): Fc fusion of NRG1 variant SEQ ID NO:140 (protein)
chain: B3 chain with A7G, E47D, D48F
modifications: huNRG1(S177-Q237)(NRGE1M)::GG::huFcSEFL2 (Pb)
B9: huNRG1(S177-Q237)(NRGE1G)::GG::huFcSEFL2 (Pb): Fc fusion of NRG1 variant SEQ ID NO:134 (protein)
chain: B3 chain with A7G, N9K, D10H, F21Y, I23V, P26S, N28I, E47N
modifications: huNRG1(S177-Q237)(NRGE1G)::GG::huFcSEFL2 (Pb)
B10: huNRG1(S177-Q237)(NRGEU)::GG::huFcSEFL2 (Pb): Fc fusion of NRG1 variant, probably NRGE1J, SEQ ID NO:137 (protein)
chain: B3 chain with A7G, F21Y, I23V, P26S, N28I, E47D
modifications: huNRG1(S177-Q237)(NRGE1J)::GG::huFcSEFL2 (Pb)
B11: huNRG1(S177-Q237)(NRGE1I)::GG::huFcSEFL2 (Pb): Fc fusion of NRG1 variant SEQ ID NO:136 (protein)
chain: B3 chain with A7G, E47D
modifications: huNRG1(S177-Q237)(NRGE1J)::GG::huFcSEFL2 (Pb)
B12: huNRG1(S177-Q237)(NRGE1E)::GG::huFcSEFL2 (Pb): Fc fusion of NRG1 variant SEQ ID NO:132 (protein)
chain: B3 chain with A7G, E47N
modifications: huNRG1(S177-Q237)(NRGE1E)::GG::huFcSEFL2 (Pb)
B13: huNRG1(S177-Q237)(NRGE1B)::GG::huFcSEFL2 (Pb): Fc fusion of NRG1 variant SEQ ID NO:115 (protein)
chain: B3 chain with A7G, F21Y, I23V, P26S, N28I
modifications: huNRG1(S177-Q237)(NRGE1B)::GG::huFcSEFL2 (Pb)
B14: huNRG1(S177-Q237)(NRGE1H)::GG::huFcSEFL2 (Pb): Fc fusion of NRG1 variant SEQ ID NO:135 (protein)
chain: B3 chain with A7G, N9S, D10H, E47N
modifications: huNRG1(S177-Q237)(NRGE1H)::GG::huFcSEFL2 (Pb)

Where a chain is given by its changes, count along the chain named. Names and notes keep the numbering of the source.

T2 sequence (Q62799 20-1339): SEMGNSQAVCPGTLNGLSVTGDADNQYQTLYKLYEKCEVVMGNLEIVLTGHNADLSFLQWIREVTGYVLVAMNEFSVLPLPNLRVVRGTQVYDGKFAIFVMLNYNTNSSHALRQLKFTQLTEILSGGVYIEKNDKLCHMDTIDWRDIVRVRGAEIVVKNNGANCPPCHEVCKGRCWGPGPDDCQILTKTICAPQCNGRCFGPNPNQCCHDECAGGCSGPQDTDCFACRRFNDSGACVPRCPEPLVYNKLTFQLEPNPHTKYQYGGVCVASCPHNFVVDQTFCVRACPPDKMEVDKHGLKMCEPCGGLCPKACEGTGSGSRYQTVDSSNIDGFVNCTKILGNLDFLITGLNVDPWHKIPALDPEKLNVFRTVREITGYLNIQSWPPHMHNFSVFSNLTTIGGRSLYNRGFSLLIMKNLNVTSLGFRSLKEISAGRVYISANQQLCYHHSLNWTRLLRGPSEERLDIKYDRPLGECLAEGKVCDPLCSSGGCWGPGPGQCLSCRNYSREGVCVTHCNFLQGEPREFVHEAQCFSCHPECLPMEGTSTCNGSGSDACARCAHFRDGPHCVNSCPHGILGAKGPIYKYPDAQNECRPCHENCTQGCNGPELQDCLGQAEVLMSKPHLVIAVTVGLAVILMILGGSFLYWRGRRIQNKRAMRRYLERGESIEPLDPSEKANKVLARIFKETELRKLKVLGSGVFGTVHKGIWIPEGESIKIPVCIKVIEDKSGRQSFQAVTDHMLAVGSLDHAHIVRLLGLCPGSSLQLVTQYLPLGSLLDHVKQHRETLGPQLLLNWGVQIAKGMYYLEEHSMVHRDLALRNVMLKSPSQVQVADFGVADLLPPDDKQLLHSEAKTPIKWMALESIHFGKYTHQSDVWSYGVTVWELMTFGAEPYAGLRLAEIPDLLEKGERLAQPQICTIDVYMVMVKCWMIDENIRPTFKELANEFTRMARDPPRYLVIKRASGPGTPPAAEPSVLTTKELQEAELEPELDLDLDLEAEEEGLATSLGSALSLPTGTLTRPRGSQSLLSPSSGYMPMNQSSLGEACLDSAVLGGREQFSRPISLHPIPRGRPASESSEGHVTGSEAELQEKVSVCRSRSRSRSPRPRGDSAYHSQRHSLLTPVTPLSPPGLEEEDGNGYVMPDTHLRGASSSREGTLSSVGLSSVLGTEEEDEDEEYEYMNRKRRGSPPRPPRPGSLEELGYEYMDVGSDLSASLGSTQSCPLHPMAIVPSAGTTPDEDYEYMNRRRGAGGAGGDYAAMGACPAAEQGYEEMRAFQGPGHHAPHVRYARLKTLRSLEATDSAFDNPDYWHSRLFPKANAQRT
T2 sequence (P06494 23-1257 partner): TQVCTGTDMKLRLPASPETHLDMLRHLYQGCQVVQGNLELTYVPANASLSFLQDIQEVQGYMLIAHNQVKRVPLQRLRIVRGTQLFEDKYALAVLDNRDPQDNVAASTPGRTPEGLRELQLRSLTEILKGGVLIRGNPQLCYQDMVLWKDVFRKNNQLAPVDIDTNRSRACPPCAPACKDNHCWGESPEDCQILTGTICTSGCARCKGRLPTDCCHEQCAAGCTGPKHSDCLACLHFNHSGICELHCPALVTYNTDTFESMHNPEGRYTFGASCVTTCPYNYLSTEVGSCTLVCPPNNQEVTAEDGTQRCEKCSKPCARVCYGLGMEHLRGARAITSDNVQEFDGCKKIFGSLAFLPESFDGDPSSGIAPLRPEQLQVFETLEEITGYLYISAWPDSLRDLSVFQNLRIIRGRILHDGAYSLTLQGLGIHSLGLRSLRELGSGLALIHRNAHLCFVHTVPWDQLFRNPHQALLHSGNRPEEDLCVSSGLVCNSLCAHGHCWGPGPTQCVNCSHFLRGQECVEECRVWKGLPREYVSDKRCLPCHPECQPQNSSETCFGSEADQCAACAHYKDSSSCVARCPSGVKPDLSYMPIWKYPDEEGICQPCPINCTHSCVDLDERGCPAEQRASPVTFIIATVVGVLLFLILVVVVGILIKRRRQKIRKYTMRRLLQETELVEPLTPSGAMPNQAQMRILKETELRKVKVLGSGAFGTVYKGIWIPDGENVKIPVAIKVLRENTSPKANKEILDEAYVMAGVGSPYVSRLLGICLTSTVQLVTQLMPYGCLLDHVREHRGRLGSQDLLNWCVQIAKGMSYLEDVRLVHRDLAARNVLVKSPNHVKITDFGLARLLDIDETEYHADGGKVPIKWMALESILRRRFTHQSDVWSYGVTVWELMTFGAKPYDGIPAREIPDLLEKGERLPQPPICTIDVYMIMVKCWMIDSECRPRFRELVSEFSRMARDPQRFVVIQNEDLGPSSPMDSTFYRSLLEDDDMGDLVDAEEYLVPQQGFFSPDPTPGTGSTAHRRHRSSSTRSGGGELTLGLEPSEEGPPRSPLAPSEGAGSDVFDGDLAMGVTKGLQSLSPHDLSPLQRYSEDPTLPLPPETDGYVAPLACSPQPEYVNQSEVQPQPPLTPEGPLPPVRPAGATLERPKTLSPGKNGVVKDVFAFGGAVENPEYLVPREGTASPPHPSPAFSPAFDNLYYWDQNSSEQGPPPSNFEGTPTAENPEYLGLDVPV
T1 sequence (Q62956 26-1308): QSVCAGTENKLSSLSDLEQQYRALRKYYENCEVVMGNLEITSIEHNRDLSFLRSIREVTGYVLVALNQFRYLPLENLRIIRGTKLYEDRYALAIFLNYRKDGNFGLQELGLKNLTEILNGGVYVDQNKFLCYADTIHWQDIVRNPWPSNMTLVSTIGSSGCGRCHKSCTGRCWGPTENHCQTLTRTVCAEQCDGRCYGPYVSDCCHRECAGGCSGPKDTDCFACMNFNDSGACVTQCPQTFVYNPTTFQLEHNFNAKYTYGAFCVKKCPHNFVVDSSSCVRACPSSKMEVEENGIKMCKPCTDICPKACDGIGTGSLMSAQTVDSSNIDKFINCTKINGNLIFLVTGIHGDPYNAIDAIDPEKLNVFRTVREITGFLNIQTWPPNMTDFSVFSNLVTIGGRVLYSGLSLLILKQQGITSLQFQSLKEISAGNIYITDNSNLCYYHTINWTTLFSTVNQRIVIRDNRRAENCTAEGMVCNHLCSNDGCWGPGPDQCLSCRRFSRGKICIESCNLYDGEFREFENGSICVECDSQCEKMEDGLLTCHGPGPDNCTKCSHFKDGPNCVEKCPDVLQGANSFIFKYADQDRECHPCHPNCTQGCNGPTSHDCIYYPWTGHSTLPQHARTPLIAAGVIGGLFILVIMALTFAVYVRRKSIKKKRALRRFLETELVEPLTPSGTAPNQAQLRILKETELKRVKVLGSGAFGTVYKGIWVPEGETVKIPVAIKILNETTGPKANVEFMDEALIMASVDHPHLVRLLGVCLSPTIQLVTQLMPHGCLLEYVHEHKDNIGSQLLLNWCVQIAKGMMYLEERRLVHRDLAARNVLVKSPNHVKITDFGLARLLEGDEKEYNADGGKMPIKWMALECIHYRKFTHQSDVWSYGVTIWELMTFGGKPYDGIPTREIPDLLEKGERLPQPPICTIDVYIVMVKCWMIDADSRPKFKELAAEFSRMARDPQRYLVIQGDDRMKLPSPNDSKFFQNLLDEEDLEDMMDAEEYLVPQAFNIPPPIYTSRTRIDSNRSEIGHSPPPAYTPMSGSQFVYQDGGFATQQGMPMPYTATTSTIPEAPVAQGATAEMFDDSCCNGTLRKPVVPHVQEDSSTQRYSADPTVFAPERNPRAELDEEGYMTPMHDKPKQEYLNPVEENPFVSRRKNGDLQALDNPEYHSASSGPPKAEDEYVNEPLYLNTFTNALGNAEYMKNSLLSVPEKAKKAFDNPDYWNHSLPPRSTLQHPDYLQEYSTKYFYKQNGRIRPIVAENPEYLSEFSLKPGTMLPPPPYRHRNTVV
T1 sequence (P06494 23-1257 partner): as the sequence (P06494 23-1257 partner) above

One assay concerns the target T1, ErbB4 (Rattus norvegicus, UniProt Q62956).
T1 construct: forming the ErbB2/ErbB4 complex in cardiomyocytes and the ErbB2/ErbB3 complex in Schwann cells; endogenous in cells; host or cells: primary neonatal rat cardiomyocytes (Sprague Dawley pups, 0 to 4 days old)
The assay is described as follows: In vitro phosphorylation of Akt in neonatal rat cardiomyocytes. It counts as cell-based. As to conditions: Akt (Serine 473) phosphorylation, neonatal rat cardiomyocytes, 15 minutes treatment; read-out: Cardiomyocyte (CM) (ErbB4) Avg EC50. The procedure, abridged: (§1)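 Akt Ser473 phosphorylation, normalised to total Akt, was measured after 15-min neuregulin variant treatment of serum-starved (16 h) cells: rat Schwann cells for ErbB3, neonatal rat cardiomyocytes for ErbB4. EC50 derived by variable-slope log(agonist) fit; CM % agonism is the curve top.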
Usually EC50 stands for the concentration needed to bring the measured effect to its halfway point. On to B1, for which the EC50 came out at 0.21 nM.

For the molecule B2, the EC50 came out at 229 nM.

In the case of B3, the EC50 was found to be 1.84 nM.

For B4, the EC50 turned out to be 1.73 nM.

As to B5, the 50% effective concentration (EC50) was determined as 2.29 nM.

With B6, the EC50 amounted to 7.54 nM.

With B7, the EC50 was found to be 0.65 nM.

On to B8, for which the half-maximal effective concentration (EC50) is 25.6 nM.

Consider B9, for which the EC50 came to 0.218 nM.

For B10, the EC50 amounted to 14.1 nM.

On to B11, for which the EC50 amounted to 22.9 nM.

Consider B12, for which the EC50 was found to be 0.995 nM.

Take B13: the half-maximal effective concentration (EC50) is 1.48 nM.

As for B14, the EC50 turned out to be 0.286 nM.

Staying with this assay, now noted: ratio of EC50s Schwann cells/cardiomyocytes.
As to B1, the “Selectivity SC/CM” value was more than 10000.

On to B2, for which the “Selectivity SC/CM” value is more than 100.

Take B3: the “Selectivity SC/CM” value was more than 5500.

Turning to B4, the “Selectivity SC/CM” value is 435.

On to B5, for which the “Selectivity SC/CM” value is listed as more than 4370.

With B6, the “Selectivity SC/CM” value is listed as 1320.

Turning to B7, the “Selectivity SC/CM” value is recorded as more than 10000.

In the case of B8, the “Selectivity SC/CM” value was determined as 39.

As to B9, the “Selectivity SC/CM” value is more than 10000.

As to B10, the “Selectivity SC/CM” value was 710.

As to B11, the “Selectivity SC/CM” value was 437.

For B12, the “Selectivity SC/CM” value is on record as more than 10000.

For B13, the “Selectivity SC/CM” value is listed as more than 6700.

In the case of B14, the “Selectivity SC/CM” value is more than 10000.

Staying with this assay, now noted: top value of the Akt phosphorylation data points in cardiomyocytes; wild-type control 100.
In the case of B3, the “CM % Agonism AVG” value worked out at 72%.

On to B4, for which the “CM % Agonism AVG” value is given as 26%.

On to B5, for which the “CM % Agonism AVG” value was 74%.

For the molecule B6, the “CM % Agonism AVG” value is 66%.

As to B7, the “CM % Agonism AVG” value was determined as 90%.

As to B8, the “CM % Agonism AVG” value turned out to be 30%.

Turning to B9, the “CM % Agonism AVG” value is reported as 84%.

For the molecule B10, the “CM % Agonism AVG” value is on record as 68%.

B11: the “CM % Agonism AVG” value turned out to be 67%.

With B12, the “CM % Agonism AVG” value is 83%.

Regarding B13, the “CM % Agonism AVG” value is listed as 76%.

Regarding B14, the “CM % Agonism AVG” value stood at 88%.

The next assay addresses T2, ErbB3 (Rattus norvegicus, UniProt Q62799).
T2 construct: forming the ErbB2/ErbB4 complex in cardiomyocytes and the ErbB2/ErbB3 complex in Schwann cells; endogenous in cells; host or cells: rat Schwann cells
The assay is described as follows: In vitro phosphorylation of Akt in rat Schwann cells. It is filed as cell-based. The settings on record: Akt (Serine 473) phosphorylation, 15 minutes treatment, read-out: Schwann cells (SC) (ErbB3) Avg EC50. The procedure, abridged:
as §1
In the case of B1, the concentration giving a half-maximal response (EC50) was more than 10000 nM.

Take B2: the EC50 is more than 10000 nM.

In the case of B3, the EC50 is more than 10000 nM.

Take B4: the EC50 is 751 nM.

B5: the EC50 was more than 10000 nM.

With B6, the EC50 was more than 10000 nM.

Turning to B7, the EC50 was more than 10000 nM.

Turning to B8, the EC50 came out at 1010 nM.

As to B9, the EC50 is more than 10000 nM.

Consider B10, for which the EC50 is more than 10000 nM.

As to B11, the EC50 is more than 10000 nM.

In the case of B12, the EC50 was more than 10000 nM.

Turning to B13, the EC50 was more than 10000 nM.

Consider B14, for which the EC50 was more than 10000 nM.
